In the supplement of paper PMC12217912:
Some of the results follow. The full chains were built here from the parent and the listed change. Inactive controls read about 0.05.

B1: TEV protease; numbered along this chain (parent)
chain: MGESLFKGPRDYNPISSSICHLTNESDGHTTSLYGIGFGPFIITNKHLFRRNNGTLVVQSLHGVFKVKDTTTLQQHLVDGRDMIIIRMPKDFPPFPQKLKFREPQREERICLVTTNFQTKSMSSMVSDTSCTFPSGDGIFWKHWIQTKDGQCGSPLVSTRDGFIVGIHSASNFTNTNNYFTSVPKNFMELLTNQEAQQWVSGWRLNADSVLWGGHKVFMVKPEEPFQPVKEATQL

Variants of: B1
Test: raw area under fraction-flipped curve 0-4 h after induction (AUC4h, not background-subtracted), DNA-recorder readout of cleavage of the substrate (dimensionless); higher = more cleavage of the substrate by the protease variant
Conditions: temperature: 34 °C; time window: 0-4 h after rhamnose induction
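Also: Bxb1 expression induced with 0.2% (w/v) L-rhamnose at OD600 near 0.5, cultures sampled hourly, flipped fraction per protease–substrate barcode pair counted by paired-end Illumina sequencing.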

Variant | area with substrate ENLYFQC | area with substrate ENLYFQG | area with substrate ENLYFQI | area with substrate ENLYFQL | area with substrate ENLYFQN | area with substrate ENLYFQQ | area with substrate ENLYFQR | area with substrate ENLYFQS | area with substrate ENLYFQT | area with substrate ENLYFQW | area with substrate ENLYFQY | area with substrate ENLYFQD | area with substrate ENLYFQK | area with substrate ENLYFQP | area with substrate ENLYFQH | area with substrate ENLYFQM | area with substrate ENLYFQV | area with substrate ENLYFQF | area with substrate ENLYFQE
D82Q | 0.065 | 0.0625 | 0.046 | 0.0502 | 0.0934 | 0.0437 | 0.0529 | 0.059 | 0.0696 | 0.0971 | 0.0633 | – | – | – | – | – | – | – | –
L61K | 0.11 | – | 0.0562 | 0.0685 | 0.0733 | 0.0694 | 0.0627 | 0.11 | 0.0551 | 0.0521 | – | 0.0548 | 0.0516 | 0.0528 | – | – | – | – | –
S60D | 0.0848 | 0.078 | – | 0.0482 | 0.0582 | – | 0.0406 | 0.0865 | 0.0506 | 0.0624 | – | – | 0.0766 | 0.047 | 0.0748 | 0.0909 | 0.0507 | – | –
F226K | 0.0947 | – | 0.0542 | 0.0625 | 0.0768 | – | 0.0585 | 0.106 | 0.0656 | 0.0635 | 0.0763 | 0.0711 | – | – | 0.0745 | 0.108 | 0.0596 | 0.0852 | –
F226A | 0.116 | – | – | 0.0698 | – | – | – | 0.112 | 0.0599 | – | 0.0943 | – | – | 0.0666 | 0.115 | – | – | – | –
S130N | 0.124 | – | – | 0.0451 | – | – | – | 0.0925 | 0.0741 | 0.0702 | – | – | 0.0706 | – | 0.0689 | 0.0692 | 0.0509 | 0.0444 | –
E223C | 0.108 | 0.0704 | 0.0612 | 0.0721 | 0.0745 | 0.0049 | 0.0621 | 0.0928 | 0.0626 | 0.088 | – | 0.0782 | 0.0647 | 0.0566 | – | 0.0682 | – | – | –
Y179L | 0.0618 | – | 0.0695 | 0.0406 | – | – | 0.0529 | 0.0589 | 0.0583 | 0.0496 | – | – | – | – | 0.0477 | – | 0.0745 | 0.0575 | –
S124Q | 0.0797 | 0.0972 | 0.07 | 0.0852 | 0.0763 | 0.0645 | 0.061 | 0.111 | 0.0691 | 0.0725 | 0.0661 | – | 0.0494 | 0.0337 | 0.0788 | – | 0.0566 | 0.0616 | –
W199D | 0.0628 | 0.0565 | – | 0.0543 | 0.0762 | – | – | 0.0648 | 0.0556 | 0.0688 | – | 0.0682 | 0.0529 | – | 0.0523 | – | – | – | 0.0661
K100S | 0.111 | – | 0.0811 | 0.0561 | 0.0823 | – | 0.0802 | 0.0995 | 0.0843 | 0.0731 | 0.0732 | 0.0774 | – | 0.0553 | – | 0.0888 | 0.0502 | 0.0963 | –
K148P | 0.0699 | 0.0816 | – | – | 0.0676 | – | 0.0613 | 0.0798 | 0.0451 | 0.0641 | 0.053 | 0.0568 | 0.0689 | – | – | – | – | – | 0.0613
K148I | 0.107 | – | 0.0556 | 0.077 | – | – | 0.0666 | 0.1 | 0.0631 | – | – | – | 0.0648 | – | 0.0388 | 0.085 | – | 0.0763 | –
Y34Q | 0.112 | – | – | 0.0593 | – | – | – | 0.0948 | 0.0727 | 0.0444 | – | – | 0.0606 | – | – | – | 0.0529 | – | –
T70D | 0.0787 | 0.0755 | 0.0473 | 0.062 | – | – | 0.0522 | 0.0738 | 0.0615 | 0.0529 | 0.0608 | 0.0527 | 0.0452 | – | 0.0418 | 0.0698 | 0.0709 | 0.0392 | 0.0502
K142M | 0.153 | 0.105 | 0.03 | 0.0542 | 0.0833 | – | 0.0684 | 0.102 | 0.0596 | 0.0606 | 0.0911 | 0.0677 | – | – | 0.0937 | 0.0657 | – | – | –
A196Q | 0.121 | 0.0962 | 0.0627 | 0.0683 | 0.0908 | 0.0892 | 0.0651 | 0.107 | 0.0591 | 0.065 | 0.0598 | – | 0.0709 | 0.073 | – | 0.0806 | 0.0743 | – | –
H47V | 0.0601 | 0.0584 | 0.0554 | 0.0615 | 0.0562 | 0.0708 | 0.0619 | 0.0634 | 0.0557 | 0.0591 | 0.0607 | – | 0.0659 | – | 0.0606 | 0.0611 | 0.0429 | 0.0719 | 0.0557
S201L | 0.091 | – | 0.0613 | 0.0677 | – | – | 0.0755 | 0.087 | 0.0762 | 0.0568 | – | 0.0645 | 0.0382 | – | 0.0737 | – | – | 0.0915 | –
C131T | 0.145 | 0.178 | – | – | 0.0746 | – | 0.0614 | 0.111 | 0.0801 | – | – | – | – | – | – | – | 0.0604 | – | –
P9M | 0.101 | 0.0865 | 0.0565 | 0.0722 | 0.0805 | 0.0823 | 0.0618 | 0.115 | 0.0835 | 0.0582 | 0.0815 | 0.0545 | 0.0518 | 0.0814 | 0.0906 | – | 0.0704 | 0.0609 | –
T181A | 0.0939 | 0.102 | 0.0664 | 0.0601 | 0.0663 | 0.0815 | 0.0625 | 0.113 | 0.069 | 0.0743 | 0.0968 | 0.11 | 0.0679 | 0.0604 | – | 0.0871 | 0.0384 | – | –
I110M | 0.0601 | – | – | 0.0492 | 0.0565 | – | 0.0568 | 0.0764 | 0.0362 | 0.051 | 0.0712 | – | 0.0513 | – | – | – | 0.0583 | – | –
Q74E | 0.112 | – | – | 0.0573 | 0.0702 | – | 0.071 | 0.103 | 0.0842 | 0.0711 | 0.068 | – | 0.0601 | 0.0467 | 0.0941 | 0.0977 | – | – | –
Q74W | 0.0951 | 0.071 | 0.0541 | 0.0549 | – | – | 0.0411 | 0.0857 | – | – | 0.0821 | 0.0553 | 0.064 | – | 0.0749 | 0.0775 | 0.0584 | – | –
N186E | 0.133 | – | – | 0.0803 | 0.064 | – | – | 0.0977 | – | – | – | 0.0443 | 0.0566 | – | 0.0835 | 0.0834 | – | 0.0521 | –
D149K | 0.0879 | 0.0819 | – | 0.067 | 0.0841 | – | 0.0532 | 0.0862 | – | – | 0.0596 | – | 0.0524 | 0.0545 | – | 0.0607 | – | 0.0646 | 0.07
E3S | 0.143 | 0.123 | – | 0.0444 | 0.0773 | – | 0.0599 | 0.124 | 0.0573 | 0.0824 | – | – | 0.0646 | 0.0653 | 0.0778 | 0.0965 | – | 0.0754 | –
